Among all 310,000 compounds or so, about 14,000 (4.5%) showed an effect of 50% or more. The effect is printed as a negative number. The list shows a part of the results.
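Also: peak tail current of the secondary pulse compared with the same well before compound.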

Sequence of human ether-à-go-go-related gene (hERG) potassium channel (Q12809 whole entry, looked up): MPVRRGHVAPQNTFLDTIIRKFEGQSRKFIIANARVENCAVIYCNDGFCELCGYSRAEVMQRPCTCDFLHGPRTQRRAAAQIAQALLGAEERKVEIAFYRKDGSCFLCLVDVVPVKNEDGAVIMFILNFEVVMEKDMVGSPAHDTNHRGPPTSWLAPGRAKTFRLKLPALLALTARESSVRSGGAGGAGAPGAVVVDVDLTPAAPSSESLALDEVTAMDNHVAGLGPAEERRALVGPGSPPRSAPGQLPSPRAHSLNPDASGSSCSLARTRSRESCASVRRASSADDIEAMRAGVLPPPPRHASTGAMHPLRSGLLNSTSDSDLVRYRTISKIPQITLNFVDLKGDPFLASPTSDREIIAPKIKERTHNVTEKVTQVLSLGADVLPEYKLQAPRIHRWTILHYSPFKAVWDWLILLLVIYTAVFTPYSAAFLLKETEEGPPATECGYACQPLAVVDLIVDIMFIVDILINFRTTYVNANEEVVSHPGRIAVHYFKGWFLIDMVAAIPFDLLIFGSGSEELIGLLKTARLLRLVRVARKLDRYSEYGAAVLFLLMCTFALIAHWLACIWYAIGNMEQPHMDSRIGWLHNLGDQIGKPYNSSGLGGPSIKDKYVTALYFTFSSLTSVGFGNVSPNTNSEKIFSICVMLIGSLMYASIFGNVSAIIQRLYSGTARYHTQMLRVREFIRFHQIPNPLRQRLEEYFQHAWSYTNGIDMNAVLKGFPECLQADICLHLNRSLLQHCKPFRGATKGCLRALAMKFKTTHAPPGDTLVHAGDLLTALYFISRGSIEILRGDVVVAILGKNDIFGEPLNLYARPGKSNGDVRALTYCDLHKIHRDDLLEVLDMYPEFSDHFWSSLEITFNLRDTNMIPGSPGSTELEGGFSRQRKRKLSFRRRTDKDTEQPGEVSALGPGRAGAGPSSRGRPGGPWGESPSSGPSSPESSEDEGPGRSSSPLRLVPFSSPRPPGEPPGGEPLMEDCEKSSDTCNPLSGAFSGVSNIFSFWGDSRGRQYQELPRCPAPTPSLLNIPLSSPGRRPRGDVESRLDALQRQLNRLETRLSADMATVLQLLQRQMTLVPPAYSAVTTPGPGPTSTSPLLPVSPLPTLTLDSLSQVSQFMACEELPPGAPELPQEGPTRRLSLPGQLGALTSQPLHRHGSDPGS

The test addresses human ether-à-go-go-related gene (hERG) potassium channel (human, UniProt Q12809). Description: primary screen, population patch clamp on CHO cells stably expressing hERG.
As for `Clc1ccc(-n2cc(COCc3ccccc3)nn2)cc1`, the “hERG current change (%, negative = inhibition) at 10uM” value is -14.4%.

Consider `Cc1ccc2c(c1)cc(C(=O)N[C@@H](Cc1ccccc1)C(=O)O)n2C`, for which the “hERG current change (%, negative = inhibition) at 10uM” value was found to be 2.03%.

For `C/C(=N\Nc1ccc(C(=O)O)cc1)c1ccc(S(=O)(=O)NCc2ccco2)cc1`, the “hERG current change (%, negative = inhibition) at 10uM” value is given as 10.7%.

Turning to `CN(C)CCOC(=O)C12CC3(C)CC(C)(CC(C)(C3)C1)C2.Cl`, the “hERG current change (%, negative = inhibition) at 10uM” value is given as -7.13%.

As for `Cc1ccc(C)c(-c2ccc(=O)n(Cc3c(F)cccc3Cl)n2)c1`, the “hERG current change (%, negative = inhibition) at 10uM” value is 3.88%.

Regarding `Cc1ccc(C(=O)NCc2cccnc2)cc1S(=O)(=O)Nc1ccccc1`, the “hERG current change (%, negative = inhibition) at 10uM” value is given as 3.42%.

Turning to `CC(C)OC(=O)/C(=C\c1cccnc1)NC(=O)c1ccccc1`, the “hERG current change (%, negative = inhibition) at 10uM” value turned out to be 4.13%.

On to `Cn1c(=O)c(Cc2ccccc2)c(O)c2ccccc21`, for which the “hERG current change (%, negative = inhibition) at 10uM” value was determined as 5.45%.

Regarding `O=C1C2C(c3ccccc3)CC=CC2[C@H](c2ccc3ccccc3c2)N1Cc1ccccc1` (stereo partly shown), the “hERG current change (%, negative = inhibition) at 10uM” value is 19.3%.

On to `COC(=O)C(NC(=O)CCC(=O)NC(C(=O)OC)c1ccccc1)c1ccccc1` (stereo not shown), for which the “hERG current change (%, negative = inhibition) at 10uM” value turned out to be 10.3%.

As to `COc1ccc(CCN2C(=O)CC(N3CCC(C(N)=O)CC3)C2=O)cc1OC` (stereo not shown), the “hERG current change (%, negative = inhibition) at 10uM” value is 11.4%.

`Cc1cccc(N(C(=O)c2csnn2)C(C(=O)NCc2ccccc2)c2ccncc2)c1` (stereo not shown): the “hERG current change (%, negative = inhibition) at 10uM” value was -18.7%.

On to `CC(=O)Nc1cc(C(=O)NCCN2CCN(Cc3ccccc3)CC2)ccc1Sc1ccc(C)cc1`, for which the “hERG current change (%, negative = inhibition) at 10uM” value is reported as -63.6%.

Consider `O=C(N/N=C/c1cc(Br)cc(Br)c1O)c1ccncc1`, for which the “hERG current change (%, negative = inhibition) at 10uM” value was 15.6%.

As to `Cc1cc(=O)oc(C)c1C(=O)NCc1c(F)cc(F)cc1F`, the “hERG current change (%, negative = inhibition) at 10uM” value is recorded as -9.84%.

Turning to `CCOC(=O)N1CCN(Cc2ccc(O)c3ncccc23)CC1`, the “hERG current change (%, negative = inhibition) at 10uM” value was -8.14%.

In the case of `O=C(NCCCC(=O)N1CCOCC1)c1cccnc1`, the “hERG current change (%, negative = inhibition) at 10uM” value was 1.22%.

Regarding `NS(=O)(=O)c1ccc(CCNC(=O)c2ccc([N+](=O)[O-])s2)cc1`, the “hERG current change (%, negative = inhibition) at 10uM” value is reported as -3.62%.

Turning to `O=C(NNC(=S)Nc1ccc(F)cc1)C1[C@H]2CCCC[C@@H]12` (stereo partly shown), the “hERG current change (%, negative = inhibition) at 10uM” value is recorded as 16.2%.

Take `COCCNc1c(-c2ccc(OC)cc2)nc2ccc(Cl)cn12`: the “hERG current change (%, negative = inhibition) at 10uM” value is given as -39.5%.

With `CCOC(=O)c1cc(NC(=O)CNCC(c2ccccc2)N(C)C)cc(C(=O)OCC)c1.O=C(O)C(=O)O` (stereo not shown), the “hERG current change (%, negative = inhibition) at 10uM” value is recorded as -57.7%.

For the molecule `Cc1ccc(N=Nc2c(N)[nH]n3c(=O)cc(-c4ccccc4)nc23)cc1`, the “hERG current change (%, negative = inhibition) at 10uM” value worked out at 7.52%.

As to `CC(C)N(C(=O)CN1C(=O)NC2(CCCCCC2)C1=O)C(C)C`, the “hERG current change (%, negative = inhibition) at 10uM” value stood at 1.17%.

With `O=C(O)Cc1ccc(NC(=O)c2ccc3c(c2)C(=O)N(Cc2ccco2)C3=O)cc1`, the “hERG current change (%, negative = inhibition) at 10uM” value came to 3.41%.

Turning to `CS(=O)(=O)N(CC(=O)Nc1cccc(F)c1)Cc1ccccc1`, the “hERG current change (%, negative = inhibition) at 10uM” value is listed as 15.8%.

For the molecule `ClCc1nc2ccccc2c2ccccc12`, the “hERG current change (%, negative = inhibition) at 10uM” value is reported as 11%.

For the molecule `CC1CCCN(c2nc3nonc3nc2N2CCCC(C)C2)C1` (stereo not shown), the “hERG current change (%, negative = inhibition) at 10uM” value came out at 1.25%.

In the case of `Cc1onc(-c2ccccc2)c1C(=O)OCCOc1cccc(Cl)c1`, the “hERG current change (%, negative = inhibition) at 10uM” value is 1.19%.

As to `Nc1ccc2c(c1)N1CCN=C1S2`, the “hERG current change (%, negative = inhibition) at 10uM” value is given as 14.5%.

Regarding `Cc1ccccc1NC(=O)Cc1nc(COC(=O)c2ccc(Cl)nc2)cs1`, the “hERG current change (%, negative = inhibition) at 10uM” value is reported as 2.75%.

Consider `Clc1ccc2nc(-c3ccccn3)c(Nc3ccc4c(c3)OCO4)n2c1`, for which the “hERG current change (%, negative = inhibition) at 10uM” value is -38.2%.

As for `COc1ccc(NC(=O)c2sc3ncnc(N4CCN(c5ccccn5)CC4)c3c2C)cc1Cl`, the “hERG current change (%, negative = inhibition) at 10uM” value is given as -23%.

For the molecule `Cc1nc(C)c(-c2nnc(-c3cccc(S(=O)(=O)N(C)C)c3)o2)cc1C(=O)NN`, the “hERG current change (%, negative = inhibition) at 10uM” value worked out at 14.1%.

On to `Cc1nc2nc(C)c(CCC(=O)NCc3ccc4c(c3)OCO4)c(C)n2n1`, for which the “hERG current change (%, negative = inhibition) at 10uM” value was -9.72%.

With `COc1ccc(OCC(=O)Nc2cccc(C(=O)Nc3ccccc3C(=O)O)c2)cc1`, the “hERG current change (%, negative = inhibition) at 10uM” value amounted to 3.09%.

As for `COc1ccc(N(Cc2ccccc2)C(=O)c2ccccc2[N+](=O)[O-])cc1`, the “hERG current change (%, negative = inhibition) at 10uM” value is -17.8%.

On to `CN1CCN(C(=O)C2=C[C@H](c3coc4ccccc4c3=O)C[C@H](OCCCCO)O2)CC1`, for which the “hERG current change (%, negative = inhibition) at 10uM” value is -20.3%.

`Cc1ccc2cc(C)c(SCC(=O)NCc3ccco3)nc2c1`: the “hERG current change (%, negative = inhibition) at 10uM” value is on record as 5.57%.

In the case of `CCOC(=O)c1sc(NC(=O)OC)c(C(=O)OC)c1C`, the “hERG current change (%, negative = inhibition) at 10uM” value is on record as 17.3%.

For `COc1ccc(Cl)cc1NC(=O)C(C)Sc1nnc(C2CC2)n1C1CC1` (stereo not shown), the “hERG current change (%, negative = inhibition) at 10uM” value was -69.5%.

As to `Cc1nn(CC(=O)c2cccc(Cl)c2)c(C)c1[N+](=O)[O-]`, the “hERG current change (%, negative = inhibition) at 10uM” value is given as -7.43%.

As for `CC1Oc2ccccc2OC1C(=O)Nc1nccs1` (stereo not shown), the “hERG current change (%, negative = inhibition) at 10uM” value turned out to be 13%.

For `CC(C)n1c(=O)c(C=Nc2ccc(F)cc2)c(O)n(Cc2ccco2)c1=O`, the “hERG current change (%, negative = inhibition) at 10uM” value is listed as -19.7%.

On to `COC(=O)COc1cc(Br)c(/C=C2/SC(=O)N(CC(=O)N3CCCC3)C2=O)cc1OC`, for which the “hERG current change (%, negative = inhibition) at 10uM” value is reported as -0.455%.

Regarding `Cc1ccc(NC(=O)C2C3CCC(O3)C2C(=O)O)cc1Cl` (stereo not shown), the “hERG current change (%, negative = inhibition) at 10uM” value was 4.35%.

Turning to `COC(=O)[C@H](CC(C)C)NC(=O)c1cc2c(cn1)[nH]c1ccccc12`, the “hERG current change (%, negative = inhibition) at 10uM” value is listed as 2.43%.

Take `CC(C(=O)Nc1ccc(Cl)cc1)c1ncc(C(F)(F)F)cc1Cl` (stereo not shown): the “hERG current change (%, negative = inhibition) at 10uM” value is -2.32%.

In the case of `Cc1cc2cc(CNC(=O)CCC(=O)O)ccc2n1C`, the “hERG current change (%, negative = inhibition) at 10uM” value was found to be 14.7%.

On to `O=C(CNC(=O)c1cccs1)NCC(=O)OCc1ccc(Cl)cc1`, for which the “hERG current change (%, negative = inhibition) at 10uM” value is reported as -17.5%.

On to `COC(=O)C1=C(c2cc3ccccc3s2)C[C@@H]2CC[C@H]1N2C(=O)NCCS(C)=O` (stereo partly shown), for which the “hERG current change (%, negative = inhibition) at 10uM” value is recorded as 5.66%.

For the molecule `CCc1ccc(OCCNC(=O)c2cccs2)cc1`, the “hERG current change (%, negative = inhibition) at 10uM” value is on record as -18%.

For the molecule `O=c1cc(-c2ccccc2)nc2nc(COc3ccccc3)[nH]n12`, the “hERG current change (%, negative = inhibition) at 10uM” value is recorded as -3.23%.

In the case of `COC(=O)/C(C#N)=C/N(C)C`, the “hERG current change (%, negative = inhibition) at 10uM” value was 14.5%.

On to `COc1ccc(C(=O)NCC(=O)N/N=C/c2c(C)[nH]c3ccccc23)cc1OC`, for which the “hERG current change (%, negative = inhibition) at 10uM” value is recorded as 4.93%.

Turning to `COC(=O)C1=C(c2cc3ccccc3o2)C[C@@H]2CC[C@H]1N2C(=O)NCc1ccc(C(F)(F)F)cc1`, the “hERG current change (%, negative = inhibition) at 10uM” value is recorded as 9.52%.
